Measurements: the supplement of paper PMC9151546
Many values rest on one well or one pass, so single values are uncertain.

How the values were obtained:
CHO-K1 [1] = assay: hypodiploid nuclei frequency (% of nucleated events); higher = more hypodiploid events (aneugenic)
Procedure: (§1)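 Flow-cytometric in vitro micronucleus assay (Litron MicroFlow) in CHO-K1 cells in 96-well plates, 19 concentrations (4.5-200 µM, n=1 per concentration). Without S9, cells were exposed for 24 h and sampled at 48 h. With Aroclor 1254-induced rat liver S9, cells were exposed for 3-4 h and sampled at 27-28 h. Read-outs are %MN and %hypodiploid nuclei relative to nucleated events, and relative survival as the nuclei-to-bead ratio versus the 1% DMSO vehicle control (x100).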

CHO-K1 [2] = assay: relative survival (nuclei to bead ratio vs DMSO control) (% of vehicle control); higher = more surviving cells
Procedure: as §1

CHO-K1 [3] = assay: micronucleus frequency (% of nucleated events); higher = more micronuclei (genotoxic)
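Wherever hypodiploid nuclei frequency (% of nucleated events) is given: hypodiploid nuclei gated on a flow cytometer with 488 nm excitation after SYTOX Green staining, cultures at 37 °C, positive controls vinblastine without S9 and cyclophosphamide with S9.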
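Wherever micronucleus frequency (% of nucleated events) is given: cells lysed with nuclei stained by SYTOX Green, then micronucleus-gated events counted against nucleated events by flow cytometry with 488 nm excitation.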
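Wherever relative survival (nuclei to bead ratio vs DMSO control) is given: Lysed-cell nuclei stained with SYTOX Green and counted against counting beads by flow cytometry at 488 nm excitation, with vinblastine (no S9) and cyclophosphamide (plus S9) as positive controls.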

Nc1ccc(S(=O)(=O)c2ccc(N)cc2)cc1 [Dapsone]
Details	hypodiploid nuclei frequency, CHO-K1 [1] [%]	micronucleus frequency, CHO-K1 [3] [%]	relative survival, CHO-K1 [2]
concentration: 4.5 (µM), S9 metabolic activation: with S9, exposure time: 3-4 hours	0.2	1.6	88.5
concentration: 4.5 (µM), S9 metabolic activation: without S9, exposure time: 24 hours	0.48	1.82	71.5
concentration: 5.63 (µM), S9 metabolic activation: with S9, exposure time: 3-4 hours	0.22	1.58	91.1
concentration: 5.63 (µM), S9 metabolic activation: without S9, exposure time: 24 hours	0.46	1.92	83.7
concentration: 7.04 (µM), S9 metabolic activation: with S9, exposure time: 3-4 hours	0.26	1.8	93
concentration: 7.04 (µM), S9 metabolic activation: without S9, exposure time: 24 hours	0.44	1.18	89.5
concentration: 8.8 (µM), S9 metabolic activation: with S9, exposure time: 3-4 hours	0.32	1.52	92.6
concentration: 8.8 (µM), S9 metabolic activation: without S9, exposure time: 24 hours	0.52	1.86	91
concentration: 11 (µM), S9 metabolic activation: with S9, exposure time: 3-4 hours	0.18	1.6	105
concentration: 11 (µM), S9 metabolic activation: without S9, exposure time: 24 hours	1	1.96	75.2
concentration: 13.7 (µM), S9 metabolic activation: with S9, exposure time: 3-4 hours	0.34	1.82	100
concentration: 13.7 (µM), S9 metabolic activation: without S9, exposure time: 24 hours	0.76	1.1	86.2
concentration: 17.2 (µM), S9 metabolic activation: with S9, exposure time: 3-4 hours	0.34	1.98	115
concentration: 17.2 (µM), S9 metabolic activation: without S9, exposure time: 24 hours	0.88	1.68	93.2
concentration: 21.5 (µM), S9 metabolic activation: with S9, exposure time: 3-4 hours	0.3	1.58	90.3
concentration: 21.5 (µM), S9 metabolic activation: without S9, exposure time: 24 hours	0.78	1.7	65.4
concentration: 26.8 (µM), S9 metabolic activation: with S9, exposure time: 3-4 hours	0.28	2.22	118
concentration: 26.8 (µM), S9 metabolic activation: without S9, exposure time: 24 hours	0.46	1.12	88.2
concentration: 33.6 (µM), S9 metabolic activation: with S9, exposure time: 3-4 hours	0.18	1.22	115
concentration: 33.6 (µM), S9 metabolic activation: without S9, exposure time: 24 hours	0.52	1.4	90.2
concentration: 41.9 (µM), S9 metabolic activation: with S9, exposure time: 3-4 hours	0.14	2.74	98.7
concentration: 41.9 (µM), S9 metabolic activation: without S9, exposure time: 24 hours	0.8	1.46	85.9
concentration: 52.4 (µM), S9 metabolic activation: with S9, exposure time: 3-4 hours	0.2	1.82	95.9
concentration: 52.4 (µM), S9 metabolic activation: without S9, exposure time: 24 hours	0.96	1.92	79.9
concentration: 65.5 (µM), S9 metabolic activation: with S9, exposure time: 3-4 hours	0.32	1.64	99.9
concentration: 65.5 (µM), S9 metabolic activation: without S9, exposure time: 24 hours	0.88	1.74	84.6
concentration: 81.9 (µM), S9 metabolic activation: with S9, exposure time: 3-4 hours	0.16	1.16	101
concentration: 81.9 (µM), S9 metabolic activation: without S9, exposure time: 24 hours	1	1.9	94.3
concentration: 102 (µM), S9 metabolic activation: with S9, exposure time: 3-4 hours	0.16	1.62	132
concentration: 102 (µM), S9 metabolic activation: without S9, exposure time: 24 hours	1.02	1.74	76.2
concentration: 128 (µM), S9 metabolic activation: with S9, exposure time: 3-4 hours	0.34	1.72	107
concentration: 128 (µM), S9 metabolic activation: without S9, exposure time: 24 hours	1.18	1.8	88.2
concentration: 160 (µM), S9 metabolic activation: with S9, exposure time: 3-4 hours	0.42	1.78	108
concentration: 160 (µM), S9 metabolic activation: without S9, exposure time: 24 hours	0.96	1.42	71
concentration: 200 (µM), S9 metabolic activation: with S9, exposure time: 3-4 hours	0.28	1.18	103
concentration: 200 (µM), S9 metabolic activation: without S9, exposure time: 24 hours	1.22	1.7	74.7
